Measured values published in the supplement of paper PMC4967469.

What was measured:
Assay in all cases: Viability of human cancer cell lines after 72 h of drug (GDSC screen)
GSK269962A = compound: CCn1c(-c2nonc2N)nc2cnc(Oc3cccc(NC(=O)c4ccc(OCCN5CCOCC5)cc4)c3)cc21 [GSK269962A]; conditions: top dose inferred
Protocol: (§1)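 Human cancer cell lines in 384-well plates, medium with 10% serum, drug for 72 h over a 256-fold dose range (nine 2-fold or five 4-fold steps up to the top dose). Adherent lines were fixed and stained with the nucleic acid dye Syto60, suspension lines read with resazurin; signal relative to control wells, capped at 0 and 100%. One two-parameter sigmoid per drug and line, fitted in a mixed model over all curves with the slope shared within a line.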

CP466722 = compound: COc1cc2ncnc(-n3nc(-c4ccccn4)nc3N)c2cc1OC [CP466722]; conditions: top dose 16 µM; top dose inferred
Protocol: as §1

KU-55933 = compound: O=c1cc(-c2cccc3c2Sc2ccccc2S3)oc(N2CCOCC2)c1 [KU-55933]; conditions: top dose 10 µM
Protocol: as §1

Zibotentan = compound: COc1nc(C)cnc1NS(=O)(=O)c1cccnc1-c1ccc(-c2nnco2)cc1 [Zibotentan]; conditions: top dose 20 µM; top dose inferred
Protocol: as §1

(5Z)-7-Oxozeaenol = compound: COc1cc(O)c2c(c1)/C=C/C[C@H](O)[C@H](O)C(=O)/C=C\C[C@H](C)OC2=O [(5Z)-7-Oxozeaenol]; conditions: top dose 10 µM; top dose inferred
Protocol: as §1

CHIR-99021 = compound: Cc1cnc(-c2cnc(NCCNc3ccc(C#N)cn3)nc2-c2ccc(Cl)cc2Cl)[nH]1 [CHIR-99021]
Protocol: as §1

ABT-888 = compound: C[C@]1(c2nc3c(C(N)=O)cccc3[nH]2)CCCN1 [ABT-888]; conditions: top dose 5 µM; top dose inferred
Protocol: as §1

QL-X-138 = compound: C=CC(=O)Nc1cc(-n2c(=O)ccc3cnc4ccc(-c5cn[nH]c5)cc4c32)ccc1C [QL-X-138]; conditions: top dose 10.24 µM; top dose inferred
Protocol: as §1

Thapsigargin = compound: C/C=C(/C)C(=O)O[C@H]1C(C)=C2[C@H]([C@@H]1OC(=O)CCCCCCC)[C@@](C)(OC(C)=O)C[C@H](OC(=O)CCC)[C@@]1(O)[C@H]2OC(=O)[C@@]1(C)O [Thapsigargin]; conditions: top dose 0.512 µM; top dose inferred
Protocol: as §1

MPS-1-IN-1 = compound: COc1cc(N2CCC(O)CC2)ccc1Nc1cc(Nc2ccccc2S(=O)(=O)C(C)C)c2cc[nH]c2n1 [MPS-1-IN-1]; conditions: top dose 20 µM; top dose inferred
Protocol: as §1

Cytarabine = compound: Nc1ccn([C@@H]2O[C@H](CO)[C@@H](O)[C@@H]2O)c(=O)n1 [Cytarabine]; conditions: top dose 2 µM
Protocol: as §1

ABT-869 = compound: Cc1ccc(F)c(NC(=O)Nc2ccc(-c3cccc4[nH]nc(N)c34)cc2)c1 [ABT-869]; conditions: top dose 1.024 µM; top dose inferred
Protocol: as §1

[1] = top dose 5 µM, screen: GDSC drug entry 1192
[2] = top dose 2.56 µM, screen: GDSC drug entry 154
[3] = top dose 10 µM, screen: GDSC drug entry 1241, top dose inferred
[4] = top dose 2.5 µM, screen: GDSC drug entry 127

Cell Line	AUC (GSK269962A; [1])	IC50 (GSK269962A; [1]) [µM]	AUC (CP466722)	IC50 (CP466722) [µM]	AUC (KU-55933)	IC50 (KU-55933) [µM]	AUC (Zibotentan)	IC50 (Zibotentan) [µM]	AUC ((5Z)-7-Oxozeaenol)	IC50 ((5Z)-7-Oxozeaenol) [µM]	AUC (CHIR-99021; [2])	IC50 (CHIR-99021; [2]) [µM]	AUC (CHIR-99021; [3])	IC50 (CHIR-99021; [3]) [µM]	AUC (ABT-888)	IC50 (ABT-888) [µM]	AUC (QL-X-138)	IC50 (QL-X-138) [µM]	AUC (Thapsigargin)	IC50 (Thapsigargin) [µM]	AUC (MPS-1-IN-1)	IC50 (MPS-1-IN-1) [µM]	AUC (Cytarabine)	IC50 (Cytarabine) [µM]	AUC (ABT-869)	IC50 (ABT-869) [µM]	AUC (GSK269962A; [4])	IC50 (GSK269962A; [4]) [µM]
MDA-MB-453 (breast, adherent)	0.928	> 5	0.829	11.5	0.979	> 10	0.986	> 20	0.82	6.59	0.984	> 2.56	0.98	> 10	0.986	> 5	0.444	0.443	0.867	> 0.512	0.949	> 20	0.919	> 2	0.974	> 1.02		
MEL-JUSO (melanoma, adherent)	0.881	> 5	0.827	11.4	0.979	> 10	0.983	> 20	0.503	0.637	0.967	> 2.56	0.966	> 10	0.957	> 5	0.962	> 10.2	0.173	0.00281	0.75	7.23	0.434	0.0806	0.959	> 1.02		
MES-SA (uterus, adherent)	0.516	0.343	0.934	> 16	0.982	> 10	0.992	> 20	0.43	0.414	0.992	> 2.56	0.989	> 10	0.992	> 5	0.909	> 10.2	0.118	0.00254	0.992	> 20	0.794	0.773	0.992	> 1.02		
MFE-280 (endometrium, adherent)	0.707	1.42	0.844	> 16	0.979	> 10	0.979	> 20	0.674	2.19	0.972	> 2.56	0.98	> 10	0.982	> 5	0.653	1.92	0.552	0.0463	0.932	> 20	0.967	> 2	0.967	> 1.02		
MFE-296 (endometrium, adherent)	0.847	4.1	0.863	15.6	0.958	> 10	0.983	> 20	0.71	2.57	0.968	> 2.56	0.983	> 10	0.965	> 5	0.674	2.04	0.249	0.00571	0.979	> 20	0.771	0.823	0.985	> 1.02		
MS751 (cervix, adherent)	0.878	4.38	0.953	> 16	0.99	> 10	0.99	> 20	0.714	2.37	0.972	> 2.56	0.961	> 10	0.99	> 5	0.901	> 10.2	0.401	0.0175	0.957	> 20	0.944	> 2	0.987	> 1.02		
NB12 (neuroblastoma, adherent)	0.791	3.15	0.736	6.09	0.972	> 10	0.978	> 20	0.408	0.321	0.956	> 2.56	0.975	> 10	0.976	> 5	0.814	8.2	0.386	0.014	0.834	19.8	0.892	> 2	0.972	> 1.02	0.875	> 2.5
NCI-H28 (mesothelioma, adherent)	0.9	> 5	0.933	> 16	0.938	> 10	0.979	> 20	0.697	2.69	0.878	> 2.56	0.844	> 10	0.962	> 5	0.931	> 10.2	0.776	0.273	0.917	> 20	0.833	1.91	0.975	> 1.02		
NCI-H520 (lung squamous cell carcinoma, adherent)	0.974	> 5	0.784	7.06	0.965	> 10	0.985	> 20	0.836	6.91	0.987	> 2.56	0.983	> 10	0.987	> 5	0.684	2.14	0.145	0.00237	0.899	> 20	0.959	> 2	0.987	> 1.02		
NCI-H596 (lung adenocarcinoma, adherent)	0.917	> 5	0.828	14	0.974	> 10	0.976	> 20	0.598	1.26	0.982	> 2.56	0.972	> 10	0.982	> 5	0.652	1.92	0.496	0.031	0.972	> 20	0.966	> 2	0.953	> 1.02		
NCI-H650 (lung adenocarcinoma, adherent)	0.92	> 5	0.807	9.22	0.964	> 10	0.984	> 20	0.68	2.1	0.986	> 2.56	0.919	> 10	0.984	> 5	0.618	1.4	0.355	0.0122	0.844	16.5	0.896	> 2	0.986	> 1.02		
NCI-H661 (large cell lung carcinoma, adherent)	0.744	1.84	0.975	> 16	0.895	> 10	0.972	> 20	0.726	3.19	0.957	> 2.56	0.969	> 10	0.98	> 5	0.718	3.06	0.442	0.0215	0.872	> 20	0.739	0.71	0.978	> 1.02		
NCI-H810 (large cell lung carcinoma, adherent)	0.496	0.305	0.775	6.03	0.984	> 10	0.988	> 20	0.751	3.16	0.986	> 2.56	0.968	> 10	0.987	> 5	0.46	0.501	0.21	0.0047	0.77	7.3	0.917	> 2	0.988	> 1.02		
NCI-H841 (small cell lung carcinoma, adherent)	0.928	> 5	0.852	12.4	0.984	> 10	0.988	> 20	0.792	4.54	0.961	> 2.56	0.971	> 10	0.985	> 5	0.576	1.04	0.874	0.502	0.92	> 20	0.737	0.594	0.988	> 1.02		
NCI-H1048 (small cell lung carcinoma, adherent)	0.973	> 5	0.702	3.46	0.966	> 10	0.989	> 20	0.803	4.38	0.99	> 2.56	0.979	> 10	0.989	> 5	0.656	1.65	0.464	0.0258	0.859	14	0.698	0.42	0.975	> 1.02		
NCI-H1435 (lung adenocarcinoma, semi-adherent)	0.992	> 5	0.894	15.6	0.916	> 10	0.992	> 20	0.963	> 10	0.979	> 2.56	0.991	> 10	0.981	> 5	0.991	> 10.2	0.294	0.00909	0.989	> 20	0.992	> 2	0.993	> 1.02		
NCI-H1568 (lung adenocarcinoma, adherent)	0.962	> 5	0.982	> 16	0.965	> 10	0.982	> 20	0.797	6.14	0.981	> 2.56	0.925	> 10	0.959	> 5	0.979	> 10.2	0.251	0.00506	0.944	> 20	0.838	1.86	0.967	> 1.02		
NCI-H1623 (lung adenocarcinoma, adherent)	0.983	> 5	0.973	> 16	0.961	> 10	0.984	> 20	0.941	> 10	0.985	> 2.56	0.971	> 10	0.981	> 5	0.933	> 10.2	0.777	0.255	0.917	> 20	0.665	0.401	0.981	> 1.02		
NCI-H1651 (lung adenocarcinoma, adherent)	0.967	> 5	0.987	> 16	0.978	> 10	0.987	> 20	0.803	5.41	0.983	> 2.56	0.986	> 10	0.98	> 5	0.986	> 10.2	0.485	0.0291	0.987	> 20	0.906	> 2	0.984	> 1.02		

The IC50 comes from the fitted curve, where viability falls to half of the control; where the fit passes the top or lowest dose, that dose stands as a limit. AUC sums up the same curve from the lowest dose to the 256-fold higher top dose: 1 means no effect, lower means more sensitive. For some of these results: An inferred top dose comes from the curve model; the source does not state it. For some of these results: An entry number marks a drug with two screens in the source, which often give different values.
